# Measurements as given in the supplement of paper PMC8728848.
# This is one part of the list.
# B1: RNase 1 (Bos taurus), P61823 (protein)
# chain: MALKSLVLLSLLVLVLLLVRVQPSLGKETAAAKFERQHMDSSTSAASSSNYCNQMMKSRNLTKDRCKPVNTFVHESLADVQAVCSQKNVACKNGQTNCYQSYSTMSITDCRETGSSKYPNCAYKTTQANKHIIVACEGNPYVPVHFDASV
# Experiments:
# Assay in all cases: glycan array binding signal (z-score within array); higher = stronger binding
# Settings in all cases: glycan notation: IUPAC condensed, linker removed
# [1] = molecular target: Gal(b1-3)[Neu5Ac(a2-6)]GalNAc
# Method in brief: (§1)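 Glycan array data came from 3228 arrays in the Consortium for Functional Glycomics database, and only arrays with an available protein sequence were kept. Glycan names were put into IUPAC-condensed notation, and columns mapping to the same glycan were averaged. The binding signal is a within-array Z-score, averaged across arrays of one protein sequence run at different concentrations or buffers and across linkers. A negative Z-score can be read as non-binding.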
# [2] = molecular target: Gal(b1-3)[Neu5Ac(a2-6)]GlcNAc
# Method in brief: as §1
# [3] = molecular target: Gal(b1-3)[Neu5Ac(a2-6)]GlcNAc(a1-4)Gal(b1-4)Glc
# Method in brief: as §1
# [4] = molecular target: Gal(b1-3)[Neu5Ac(b2-6)]GlcNAc
# Method in brief: as §1
# [5] = molecular target: Gal(b1-4)GalNAc(a1-3)[Fuc(a1-2)]Gal(b1-4)GlcNAc
# Method in brief: as §1
# [6] = molecular target: Gal(b1-4)GalNAc(b1-3)[Fuc(a1-2)]Gal(b1-4)GlcNAc
# Method in brief: as §1
# Gal(b1-4)Glc = molecular target: Gal(b1-4)Glc
# Method in brief: as §1
# Gal(b1-4)Glc6S = molecular target: Gal(b1-4)Glc6S
# Method in brief: as §1
# Gal(b1-4)GlcNAc = molecular target: Gal(b1-4)GlcNAc
# Method in brief: as §1
# [7] = molecular target: Gal(b1-4)GlcNAc(b1-2)Man(a1-3)[Gal(b1-4)GlcNAc(b1-2)Man(a1-6)]Man(b1-4)GlcNAc(b1-4)GlcNAc
# Method in brief: as §1
# [8] = molecular target: Gal(b1-4)GlcNAc(b1-3)Gal(b1-4)Glc
# Method in brief: as §1
# [9] = molecular target: Gal(b1-4)GlcNAc(b1-3)Gal(b1-4)GlcNAc
# Method in brief: as §1
# [10] = molecular target: Gal(b1-4)GlcNAc(b1-3)Gal(b1-4)GlcNAc(b1-3)Gal(b1-4)GlcNAc
# Method in brief: as §1
# [11] = molecular target: Gal(b1-4)GlcNAc(b1-3)Gal(b1-4)[Fuc(a1-3)]GlcNAc(b1-3)Gal(b1-4)[Fuc(a1-3)]GlcNAc
# Method in brief: as §1
# [12] = molecular target: Gal(b1-4)GlcNAc(b1-3)GalNAc
# Method in brief: as §1
# [13] = molecular target: Gal(b1-4)GlcNAc(b1-3)[Gal(b1-4)GlcNAc(b1-6)]GalNAc
# Method in brief: as §1
# [14] = molecular target: Gal(b1-4)GlcNAc(b1-6)GalNAc
# Method in brief: as §1
# [15] = molecular target: Gal(b1-4)GlcNAc(b1-6)[Gal(b1-3)]GalNAc
# Method in brief: as §1
# [16] = molecular target: Gal(b1-4)GlcNAc(b1-6)[Gal(b1-3)]GlcNAc
# Method in brief: as §1
# Gal3S(b1-3)GalNAc = molecular target: Gal3S(b1-3)GalNAc
# Method in brief: as §1
# Gal3S(b1-3)GlcNAc = molecular target: Gal3S(b1-3)GlcNAc
# Method in brief: as §1
# [17] = molecular target: Gal3S(b1-3)[Fuc(a1-4)]GlcNAc
# Method in brief: as §1
# Gal3S(b1-4)Glc = molecular target: Gal3S(b1-4)Glc
# Method in brief: as §1
# Gal3S(b1-4)Glc6S = molecular target: Gal3S(b1-4)Glc6S
# Method in brief: as §1
# Gal3S(b1-4)GlcNAc = molecular target: Gal3S(b1-4)GlcNAc
# Method in brief: as §1
# Gal3S(b1-4)GlcNAc6S = molecular target: Gal3S(b1-4)GlcNAc6S
# Method in brief: as §1
# Gal3S6S(b1-4)GlcNAc = molecular target: Gal3S6S(b1-4)GlcNAc
# Method in brief: as §1
# Gal3S6S(b1-4)GlcNAc6S = molecular target: Gal3S6S(b1-4)GlcNAc6S
# Method in brief: as §1
# Gal4S(b1-4)GlcNAc = molecular target: Gal4S(b1-4)GlcNAc
# Method in brief: as §1
# Gal4S6S(b1-4)GlcNAc = molecular target: Gal4S6S(b1-4)GlcNAc
# Method in brief: as §1
# Gal6S(b1-4)Glc = molecular target: Gal6S(b1-4)Glc
# Method in brief: as §1
# Gal6S(b1-4)Glc6S = molecular target: Gal6S(b1-4)Glc6S
# Method in brief: as §1
# Gal6S(b1-4)GlcNAc = molecular target: Gal6S(b1-4)GlcNAc
# Method in brief: as §1
# GalNAc(a1-3)Gal = molecular target: GalNAc(a1-3)Gal
# Method in brief: as §1
# GalNAc(a1-3)GalNAc = molecular target: GalNAc(a1-3)GalNAc
# Method in brief: as §1
# [18] = molecular target: GalNAc(b1-3)Gal(a1-4)Gal(b1-4)GlcNAc
# Method in brief: as §1
# GalNAc(b1-4)GlcNAc = molecular target: GalNAc(b1-4)GlcNAc
# Method in brief: as §1
# Glc(a1-4)Glc = molecular target: Glc(a1-4)Glc
# Method in brief: as §1
# Glc(a1-6)Glc(a1-6)Glc = molecular target: Glc(a1-6)Glc(a1-6)Glc
# Method in brief: as §1
# Glc(b1-4)Glc = molecular target: Glc(b1-4)Glc
# Method in brief: as §1
# Glc(b1-6)Glc = molecular target: Glc(b1-6)Glc
# Method in brief: as §1
# GlcA(b1-3)Gal = molecular target: GlcA(b1-3)Gal
# Method in brief: as §1
# GlcA(b1-6)Gal = molecular target: GlcA(b1-6)Gal
# Method in brief: as §1
# [19] = molecular target: GlcNAc(a1-3)Gal(b1-4)GlcNAc
# Method in brief: as §1
# [20] = molecular target: GlcNAc(a1-6)Gal(b1-4)GlcNAc
# Method in brief: as §1
# [21] = molecular target: GlcNAc(b1-2)Gal(b1-3)GlcNAc
# Method in brief: as §1
# [22] = molecular target: GlcNAc(b1-2)Man(a1-3)[GlcNAc(b1-2)Man(a1-6)]Man(b1-4)GlcNAc(b1-4)GlcNAc
# Method in brief: as §1
# GlcNAc(b1-3)Gal = molecular target: GlcNAc(b1-3)Gal
# Method in brief: as §1
# [23] = molecular target: GlcNAc(b1-3)Gal(b1-3)GalNAc
# Method in brief: as §1
# GlcNAc(b1-3)Gal(b1-4)Glc = molecular target: GlcNAc(b1-3)Gal(b1-4)Glc
# Method in brief: as §1
# [24] = molecular target: GlcNAc(b1-3)Gal(b1-4)GlcNAc
# Method in brief: as §1
# [25] = molecular target: GlcNAc(b1-3)Gal(b1-4)GlcNAc(b1-3)Gal(b1-4)GlcNAc
# Method in brief: as §1
# GlcNAc(b1-3)GalNAc = molecular target: GlcNAc(b1-3)GalNAc
# Method in brief: as §1
# [26] = molecular target: GlcNAc(b1-3)[GlcNAc(b1-4)][GlcNAc(b1-6)]GlcNAc
# Method in brief: as §1
# [27] = molecular target: GlcNAc(b1-3)[GlcNAc(b1-6)]Gal(b1-4)GlcNAc
# Method in brief: as §1
# [28] = molecular target: GlcNAc(b1-3)[GlcNAc(b1-6)]GlcNAc
# Method in brief: as §1
# [29] = molecular target: GlcNAc(b1-4)Gal(b1-4)GlcNAc
# Method in brief: as §1
# [30] = molecular target: GlcNAc(b1-4)GlcNAc(b1-4)GlcNAc
# Method in brief: as §1
# [31] = molecular target: GlcNAc(b1-4)GlcNAc(b1-4)GlcNAc(b1-4)GlcNAc(b1-4)GlcNAc
# Method in brief: as §1
# [32] = molecular target: GlcNAc(b1-4)GlcNAc(b1-4)GlcNAc(b1-4)GlcNAc(b1-4)GlcNAc(b1-4)GlcNAc
# Method in brief: as §1
# [33] = molecular target: GlcNAc(b1-4)[GlcNAc(b1-6)]GalNAc
# Method in brief: as §1
# [34] = molecular target: GlcNAc(b1-6)Gal(b1-4)GlcNAc
# Method in brief: as §1
# GlcNAc(b1-6)GalNAc = molecular target: GlcNAc(b1-6)GalNAc
# Method in brief: as §1
# Kdn(a2-3)Gal(b1-3)GlcNAc = molecular target: Kdn(a2-3)Gal(b1-3)GlcNAc
# Method in brief: as §1
binder,measurement,setting,value
B1,glycan array binding signal (z-score),[1],-0.232
same,glycan array binding signal (z-score),[2],-0.195
same,glycan array binding signal (z-score),[3],0.379
same,glycan array binding signal (z-score),[4],-0.224
same,glycan array binding signal (z-score),[5],-0.115
same,glycan array binding signal (z-score),[6],-0.218
same,glycan array binding signal (z-score),Gal(b1-4)Glc,-0.073
same,glycan array binding signal (z-score),Gal(b1-4)Glc6S,-0.14
same,glycan array binding signal (z-score),Gal(b1-4)GlcNAc,-0.196
same,glycan array binding signal (z-score),[7],-0.171
same,glycan array binding signal (z-score),[8],0.369
same,glycan array binding signal (z-score),[9],-0.165
same,glycan array binding signal (z-score),[10],-0.224
same,glycan array binding signal (z-score),[11],-0.101
same,glycan array binding signal (z-score),[12],-0.22
same,glycan array binding signal (z-score),[13],-0.216
same,glycan array binding signal (z-score),[14],-0.221
same,glycan array binding signal (z-score),[15],-0.205
same,glycan array binding signal (z-score),[16],-0.197
same,glycan array binding signal (z-score),Gal3S(b1-3)GalNAc,-0.186
same,glycan array binding signal (z-score),Gal3S(b1-3)GlcNAc,-0.127
same,glycan array binding signal (z-score),[17],-0.179
same,glycan array binding signal (z-score),Gal3S(b1-4)Glc,-0.184
same,glycan array binding signal (z-score),Gal3S(b1-4)Glc6S,-0.033
same,glycan array binding signal (z-score),Gal3S(b1-4)GlcNAc,-0.17
same,glycan array binding signal (z-score),Gal3S(b1-4)GlcNAc6S,-0.098
same,glycan array binding signal (z-score),Gal3S6S(b1-4)GlcNAc,-0.091
same,glycan array binding signal (z-score),Gal3S6S(b1-4)GlcNAc6S,-0.178
same,glycan array binding signal (z-score),Gal4S(b1-4)GlcNAc,0.34
same,glycan array binding signal (z-score),Gal4S6S(b1-4)GlcNAc,-0.035
same,glycan array binding signal (z-score),Gal6S(b1-4)Glc,-0.073
same,glycan array binding signal (z-score),Gal6S(b1-4)Glc6S,-0.067
same,glycan array binding signal (z-score),Gal6S(b1-4)GlcNAc,-0.2
same,glycan array binding signal (z-score),GalNAc(a1-3)Gal,-0.222
same,glycan array binding signal (z-score),GalNAc(a1-3)GalNAc,-0.137
same,glycan array binding signal (z-score),[18],0.455
same,glycan array binding signal (z-score),GalNAc(b1-4)GlcNAc,-0.186
same,glycan array binding signal (z-score),Glc(a1-4)Glc,-0.235
same,glycan array binding signal (z-score),Glc(a1-6)Glc(a1-6)Glc,-0.187
same,glycan array binding signal (z-score),Glc(b1-4)Glc,-0.207
same,glycan array binding signal (z-score),Glc(b1-6)Glc,-0.174
same,glycan array binding signal (z-score),GlcA(b1-3)Gal,-0.161
same,glycan array binding signal (z-score),GlcA(b1-6)Gal,-0.088
same,glycan array binding signal (z-score),[19],-0.233
same,glycan array binding signal (z-score),[20],-0.17
same,glycan array binding signal (z-score),[21],0.031
same,glycan array binding signal (z-score),[22],-0.106
same,glycan array binding signal (z-score),GlcNAc(b1-3)Gal,-0.181
same,glycan array binding signal (z-score),[23],-0.194
same,glycan array binding signal (z-score),GlcNAc(b1-3)Gal(b1-4)Glc,-0.099
same,glycan array binding signal (z-score),[24],-0.212
same,glycan array binding signal (z-score),[25],-0.245
same,glycan array binding signal (z-score),GlcNAc(b1-3)GalNAc,-0.251
same,glycan array binding signal (z-score),[26],-0.069
same,glycan array binding signal (z-score),[27],-0.22
same,glycan array binding signal (z-score),[28],-0.116
same,glycan array binding signal (z-score),[29],-0.174
same,glycan array binding signal (z-score),[30],-0.038
same,glycan array binding signal (z-score),[31],-0.028
same,glycan array binding signal (z-score),[32],-0.15
same,glycan array binding signal (z-score),[33],-0.122
same,glycan array binding signal (z-score),[34],-0.165
same,glycan array binding signal (z-score),GlcNAc(b1-6)GalNAc,-0.213
same,glycan array binding signal (z-score),Kdn(a2-3)Gal(b1-3)GlcNAc,-0.162
